Measured values as given in PubChem BioAssay AID720708 (National Center for Advancing Translational Sciences (NCATS), 2013).
About 660 (0.18%) of roughly 360,000 compounds were called active. This list was built around the results that the source calls inconclusive (neither active nor inactive); the mix of calls is not that of the screen. Calls come from the whole dose curve; as a rule, active = well fitted inhibition curve with a large enough effect; inconclusive = small, poorly fitted or top-dose-only effect; inactive = no such curve, though single readings can be large or run the other way. Potencies of inconclusive entries are left out as doubtful fits.

target: Rap guanine nucleotide exchange factor 4 (Homo sapiens) (UniProt Q8WZA2); experiment: qHTS for Antagonist of cAMP-regulated guanine nucleotide exchange factor 2 (EPAC2): primary screen; settings: EPAC2 GEF exchange of Rap1B-BODIPY-GDP, fluorescence; activity, negative = inhibition: at 114 µM (top of the series) unless noted; note: nearly all actives have a fitted effect of over 45% in size
% is set by controls: 0 for no effect and ±100 for the full control effect; potency is the fitted concentration of half-maximal effect; tags give direction and shape of the fitted curve.

Sequence of UniProt Q8WZA2 (Q8WZA2 whole entry, looked up): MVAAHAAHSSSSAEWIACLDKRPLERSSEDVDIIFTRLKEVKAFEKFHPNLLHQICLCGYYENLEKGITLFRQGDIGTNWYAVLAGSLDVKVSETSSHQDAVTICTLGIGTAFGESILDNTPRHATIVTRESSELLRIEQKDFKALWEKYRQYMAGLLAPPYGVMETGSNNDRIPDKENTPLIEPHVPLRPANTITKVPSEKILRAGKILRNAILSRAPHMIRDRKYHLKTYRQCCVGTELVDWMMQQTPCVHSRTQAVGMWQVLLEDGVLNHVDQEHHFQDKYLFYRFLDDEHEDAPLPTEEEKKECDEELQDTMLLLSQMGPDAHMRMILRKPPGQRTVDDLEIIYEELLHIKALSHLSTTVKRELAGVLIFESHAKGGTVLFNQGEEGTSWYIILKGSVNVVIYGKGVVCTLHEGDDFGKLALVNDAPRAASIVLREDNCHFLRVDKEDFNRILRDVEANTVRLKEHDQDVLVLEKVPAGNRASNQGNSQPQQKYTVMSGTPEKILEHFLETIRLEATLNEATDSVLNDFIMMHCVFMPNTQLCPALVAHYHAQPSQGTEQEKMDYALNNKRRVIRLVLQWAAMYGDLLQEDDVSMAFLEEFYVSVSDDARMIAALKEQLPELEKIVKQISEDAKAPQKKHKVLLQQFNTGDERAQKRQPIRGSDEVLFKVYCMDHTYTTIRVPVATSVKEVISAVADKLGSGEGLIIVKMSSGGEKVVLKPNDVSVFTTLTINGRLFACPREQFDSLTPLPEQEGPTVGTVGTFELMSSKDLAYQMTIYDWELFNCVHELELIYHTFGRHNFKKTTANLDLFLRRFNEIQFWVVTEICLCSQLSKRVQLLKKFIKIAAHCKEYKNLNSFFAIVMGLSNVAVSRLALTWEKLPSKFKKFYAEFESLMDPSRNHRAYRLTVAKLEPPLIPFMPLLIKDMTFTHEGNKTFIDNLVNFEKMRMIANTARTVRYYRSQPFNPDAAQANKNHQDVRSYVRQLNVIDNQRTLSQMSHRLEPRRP

| SMILES | Potency | activity, negative = inhibition |
| --- | --- | --- |
| CCC(=O)NC(c1ccco1)c1cc(Cl)c2ccccc2c1O (centres undefined) | inconclusive [inhibitor, full curve] | – |
| CC(C)OC(=O)c1ccc(N2CCN(c3ccc(F)cc3)CC2)nc1 | inconclusive [inhibitor, single point] | – |
| COC(=O)c1ccc(-c2ccc(F)cc2)nc1C | inactive | – |
| COc1ccc(OC)c(NC(=O)C2(C)CCN2C(=O)C(C)(C)c2ccccc2)c1 (centres undefined) | inconclusive [inhibitor, partial curve] | – |
| CC1(C)CC2CC(C)(CN2S(=O)(=O)c2ccccc2[N+](=O)[O-])C1 (centres undefined) | inconclusive [inhibitor, partial curve] | – |
| Nc1ccc(NC(=O)c2ccc(C(=O)Nc3ccc(N)cc3)cc2)cc1 | inactive | – |
| CCOP(=O)(OCC)/C(C#N)=C/c1c[nH]c2ccccc12 | inconclusive [inhibitor, partial curve] | – |
| FC(F)(F)c1ccccc1Cc1c(-c2ccc(Cl)cc2)nc2ccc(Cl)cn12 | active: 56.2 µM | – |
| COc1ccc(OC(C)C(=O)Nc2ccccc2F)cc1 (centres undefined) | inactive | – |
| O=c1cc(CNc2cc(C(F)(F)F)cc(C(F)(F)F)c2)nc2sccn12 | inconclusive [inhibitor, partial curve] | – |
| O=C(O)c1ccc(-c2nc(-c3ccc(Cl)cc3Cl)cs2)cc1 | inconclusive [inhibitor, partial curve] | – |
| CCCCC(=O)N(C)c1c(CC)nc2c(OCc3ccc(C#N)cc3)cccn12 | inconclusive [inhibitor, partial curve, poor fit] | – |
| COc1cccc(CN(C)C(=O)c2cccc(S(=O)(=O)NCc3ccccc3)c2)c1OC | inconclusive [inhibitor, single point] | – |
| CCN(c1ccccc1)S(=O)(=O)c1c[nH]c2ccc([N+](=O)[O-])cc12 | inconclusive [inhibitor, partial curve] | – |
| CCCC1OC(c2cc3c(cc2Cl)OCO3)OCC1CC (centres undefined) | inconclusive [inhibitor, partial curve] | – |
| CC(C)C(=O)Nc1cccc(S(=O)(=O)c2cccc(NC(=O)C(C)C)c2)c1 | inconclusive [inhibitor, single point] | – |
| CCOC(=O)C(C)c1ccc2cc(OC)ccc2c1 (centres undefined) | inconclusive [inhibitor, full curve, poor fit] | – |
| COc1ccccc1NCC(O)COc1ccc(C(C)(C)C)cc1 (centres undefined) | inconclusive [inhibitor, partial curve] | – |
| O=c1c2ccccc2oc2cc(-c3ccc4cc[nH]c4c3)ccc12 | – | inconclusive: -2.05% [inhibitor] |
| Cc1cc(C)c(OCC(=O)Nc2ccccc2N2CCCCC2)c(C)c1 | inconclusive [inhibitor, full curve] | – |
| CCCCCc1ccc(OCCOCCn2c[n+](C)c3ccccc32)c(CCCCC)c1 | inconclusive [inhibitor, partial curve] | – |
| Oc1c(N=Nc2nn[nH]n2)ccc2ccccc12 | inconclusive [inhibitor, single point] | – |

| SMILES | Potency | activity, negative = inhibition |
| --- | --- | --- |
| COCCN(CCOC)Cc1cc(=O)oc2cc(C)c(Cl)cc12 | inconclusive [inhibitor, partial curve] | – |
| O=C(Nc1cccc(F)c1)C1CCN(C(=O)c2ccco2)CC1 | inactive | – |
| CCNC(C(=O)c1c[nH]c2c(CC)cccc12)c1ccccc1 (centres undefined) | inconclusive [inhibitor, partial curve] | – |
| Cc1ccc(C)c(OC(=O)c2cccnc2Cl)c1C | inconclusive [inhibitor, full curve] | – |
| COc1ccc(-c2cc(C(=O)NNC(=S)NC(=O)c3c(-c4ccccc4)noc3C)[nH]n2)cc1 | inactive | – |
| COc1ccccc1CN(C)CC(=O)Nc1ccccc1-c1ccccc1 | inconclusive [inhibitor, full curve] | – |
| O=C(OCc1ccc(Br)cc1)c1cccnc1Cl | inconclusive [inhibitor, partial curve] | – |
| COC(=O)C1=C(C)N(CCCC(=O)O)C(=O)NC1c1ccc(-c2ccccc2)cc1 (centres undefined) | inconclusive [inhibitor, partial curve] | – |
| Oc1ccccc1CNc1ccc(OC(F)(F)F)cc1 | inconclusive [inhibitor, partial curve] | – |
| O=C(NC1(O)C(=O)c2ccccc2C1=O)c1ccc(C(F)(F)F)cc1 | inconclusive [inhibitor, full curve] | – |
| O=C(NCCc1ccc(F)cc1)c1cccc2c1C(=O)c1ccc(N3CCC(Cc4ccccc4)CC3)cc1S2(=O)=O | inconclusive [inhibitor, single point] | – |
| COc1ccc2c(c1)CSC(c1ccccc1)C2=O (centres undefined) | inconclusive [inhibitor, partial curve] | – |
| COc1cccc(/C=C2\C(=O)N(c3cccc(C)c3)C(=O)c3ccccc32)c1 | inactive | – |
| CCCC(=O)NC(c1ccc(C)cc1)c1ccc2cccnc2c1O (centres undefined) | inconclusive [inhibitor, full curve] | – |
| COC(=O)c1cccc(CN2C(=O)C(C)Sc3ccc(C)cc32)c1 (centres undefined) | – | inconclusive: -13.6% [inhibitor] |
| O=C1OCCN1C(=O)[C@H]1[C@H](c2ccc(Cl)cc2)C(c2cccc(Cl)c2)=NN1c1ccc(Br)cc1 | inactive | – |
| CCN(CC)C(=S)SCC(=O)c1ccc(Br)cc1 | inactive | – |
| O=S(=O)(c1ccc(Br)s1)N1CCN(c2ccc(F)cc2)CC1 | inactive | – |
| COc1ccc(NS(=O)(=O)c2cc(N)ccc2N2CCCCC2)cc1 | inconclusive [inhibitor, partial curve] | – |
| Cc1ccc(NC(=O)CNC(=O)N2CC(=O)Nc3ccccc32)cc1F | inconclusive [inhibitor, single point] | – |
| O=C(/C=C/c1ccc(Cl)cc1)Nc1nccs1 | inconclusive [inhibitor, single point] | – |
| COc1ccc(Cl)cc1-n1c(=S)sc2c(=O)[nH]c(SCC(=O)NCCC(C)C)nc21 | inconclusive [inhibitor, partial curve] | – |
